Data reported in PubChem BioAssay AID463173 (ICCB-Longwood Screening Facility, Harvard Medical School, 2010).
About 1,700 (3.3%) of roughly 52,000 compounds were called active. No stated cut-off is given here; in the data, active means survival mostly below about 52% (no sharp cut-off); inactive means mostly above about 56%. The list shows a part of the results.

Test system: Wild type
Assay: S. aureus survival, RN4220 and DeltatarO strains – OD600, teichoic acid synthesis inhibitors, primary screen (AID 463173)
Details: S. aureus RN4220 wild type/DeltatarO growth, OD600, 18 h, hits give low values, screened at 18.75 µg/mL (by protocol)

| Structure (SMILES) | survival |
| --- | --- |
| COc1ccccc1NC(=O)CSC1=Nc2ccccc2C2=NC(Cc3ccccc3)C(=O)N12 (configuration not stated) | inactive: 146% |
| CCOc1ccc(S(=O)(=O)N2CCN(c3cccc(C(F)(F)F)c3)CC2)cc1OCC | inactive: 72% |
| CCOC(=O)N1CCc2c(sc3c2c(=O)n(Cc2ccccc2)c(=O)n3Cc2cccc(C)c2)C1 | inactive: 92% |
| Cc1cc(C)c(S(=O)(=O)NCC(c2ccco2)N2CCOCC2)c(C)c1 (configuration not stated) | inactive: 82% |
| CCc1nc2c(cnn2-c2ccc(C)cc2)c(=O)n1Cc1ccccc1 | inactive: 22% |
| COc1ccc(Cl)cc1C(=O)NCc1ccco1 | inactive: 106% |
| CCc1ccc(NC(=O)Cn2c(=O)n(CCCCC(=O)NCc3ccccc3Cl)c(=O)c3ccccc32)cc1 | inactive: 90% |
| Cc1ccc(-c2onc(C)c2C)cc1S(=O)(=O)NCc1ccc(N(C)C)cc1 | active: -4% |
| COc1cccc(Cn2c(=O)n(-c3cccc(Cl)c3)c(=O)c3c4c(sc32)CN(C(C)=O)CC4)c1 | inactive: 86% |
| C=CCC(CC=C)(CNC(=O)C(=O)Nc1ccc(C)cc1)c1ccccc1 | inactive: 98% |
| CCOc1cc(OCC)cc(C(=O)Nc2cccc(-c3nc4ccccc4[nH]3)c2)c1 | inactive: 58% |
| CCOc1ccc(NC(=O)CN2CCN(S(=O)(=O)c3ccc(OC)cc3)CC2)cc1 | inactive: 81% |
| O=C(NCc1ccccc1)C(=O)NCC(c1ccco1)S(=O)(=O)c1ccc(Cl)cc1 (configuration not stated) | inactive: 69% |
| CN(C)c1nc(C2CC2)nc2c1nnn2Cc1ccccc1Cl | inactive: 124% |
| COc1ccccc1-c1nnc(C2CCN(C(=O)c3cccc(C)c3)CC2)o1 | inactive: 80% |
| COc1ccc(NC(=O)c2cc(C)nc3c2c(C)nn3-c2ccc(C)cc2)cc1OC | inactive: 75% |
| CCOC(=O)C1CC1c1ccccc1 (configuration not stated) | inactive: 118% |
| CC(C)(O)C1Cc2cc3ccc(=O)oc3cc2O1 (configuration not stated) | inactive: 97% |
| CCn1c(=O)cc(OCC(=O)NCc2ccccc2OC)c2ccccc21 | inactive: 74% |
| CCCCN(C)CCCNC(=O)C1CCN(S(=O)(=O)CC)CC1 | inactive: 120% |
| Cc1c2cnn(CC(=O)N3CCN(c4ccccc4)CC3)c(=O)c2c(C)n1Cc1ccccc1Cl | inactive: 94% |
| CC(=O)C1=C(c2ccccc2)N(C(C)=O)n2c(nnc2C2CCCCC2)S1 | inactive: 159% |

| Structure (SMILES) | survival |
| --- | --- |
| CCCCN(C)CCCNC(=O)CN1N=C(c2ccc(OC)cc2)CCC1=O | inactive: 80% |
| CC(=O)c1ccc(NC(=O)CCc2c(C)nc3c(c2C)c(=O)n(C)c(=O)n3C)cc1 | inactive: 72% |
| CSc1ncc(Cl)c(C(=O)Nc2ccc(S(=O)(=O)Nc3nccc(C)n3)cc2)n1 | inactive: 84% |
| COc1cc2nc(NC(=O)c3ccccc3)[nH]c(=O)c2cc1OC | inactive: 107% |
| COc1ccc(CCNC(=O)c2cc3n(n2)CCCN(Cc2ccc(C)cc2)C3=O)cc1OC | inactive: 82% |
| Cc1ccc(CCNC(=O)c2ccc3[nH]c(C)c(C)c3c2)cc1 | inactive: 135% |
| Cc1cc(C)cc(-n2cnc3cc(C(=O)NC4CCCCCC4)ccc32)c1 | inactive: 87% |
| CCn1cc2nc(SCC(=O)Nc3ccc(C)cc3)n(Cc3ccc(C)cc3)c(=O)c2n1 | inactive: 68% |
| O=C(NCc1ccccc1F)c1sc2ncccc2c1-n1cccc1 | inactive: 88% |
| O=S(=O)(NCCS(=O)(=O)N1CCN(c2cccc(Cl)c2)CC1)c1ccc(F)cc1 | inactive: 75% |
| CCOc1ccc(C2=NC(c3cccs3)=Nc3ccc(CC)cc3N2)cc1OCC | inactive: 77% |
| COC(=O)CN1C(=O)C(C)(C)c2cc(S(=O)(=O)Nc3ccc(Br)cc3F)ccc21 | inactive: 57% |
| Cc1[nH]c2ccc(Br)cc2c1CCNC(=O)c1cc2ccccc2oc1=O | inactive: 64% |
| CCN(CC)c1ccc(NC(=O)CN2CCN(c3ccccc3F)CC2)cc1 | inactive: 84% |
| CC(=O)N1CCCc2cc(S(=O)(=O)N3CCCC(C(=O)Nc4ccc(C)cc4C)C3)ccc21 (configuration not stated) | inactive: 83% |
| COc1ccc(-n2nc3cc(C)c(NC(=O)c4ccc(-c5ccc(Br)cc5)o4)cc3n2)cc1 | inactive: 70% |
| COc1cc(OC)cc(C(=O)Nc2cc3c(cc2N2CCOCC2)n(C)c(=O)n3C)c1 | inactive: 80% |
| Cc1cccc(NC(=O)CN2C(=O)C(c3ccccc3)=NC23CCC(C)CC3)c1 (configuration not stated) | inactive: 86% |
| CC(=O)c1cccc(-n2c(=O)c3c4c(sc3n(Cc3cccc(C)c3)c2=O)CN(C(C)=O)CC4)c1 | inactive: 86% |
| Cc1cc(C)n(CCc2nc3c4ccccc4nc(N4CCN(c5cccc(C)c5C)CC4)n3n2)n1 | inactive: 74% |
| CCOC(=O)c1cccc(NC(=O)CCS(=O)(=O)c2ccc3c(c2)CC(=O)N3C)c1 | inactive: 135% |
| Cc1ccc(S(=O)(=O)C2(C(=O)Nc3ccc(Cl)c(C(F)(F)F)c3)CC2)cc1 | active: 41% |

| Structure (SMILES) | survival |
| --- | --- |
| Cc1ccc(/C=C(\C#N)c2nc(-c3ccc(-c4ccccc4)cc3)cs2)cc1 | inactive: 83% |
| COc1ccc(OC)c(C(=O)CC2(O)C(=O)N(Cc3ccccc3C)c3ccccc32)c1 (configuration not stated) | inactive: 118% |
| CCOc1ccccc1CNC(=O)CCc1c(C)nn(-c2ccc(N3CCCC3)nn2)c1C | inactive: 71% |
| CCN1C=CC2=C(C#N)C(N)C(C#N)(C#N)C(c3cccs3)C2C1 (configuration not stated) | inactive: 99% |
| COc1ccccc1CNC(=O)Cn1c(=O)nc(-c2ccccc2F)c2cc(Cl)ccc21 | inactive: 73% |
| COC(=O)c1ccc(Cl)cc1NC(=O)NCCc1c(C)nn(C)c1C | inactive: 55% |
| Cc1c(C(=O)N2CCOCC2)oc2c1-c1nn(CC(=O)NCc3cccc(F)c3)cc1CC2 | inactive: 108% |
| CC(C)c1ccc(NC(=O)Cn2c(=O)n(CC3CCC(C(=O)NCCc4ccccc4)CC3)c(=O)c3ccccc32)cc1 (configuration not stated) | inactive: 71% |
| CC(C)(C)C1CCc2c(sc(NC(=O)Cn3nnc(-c4ccccc4Cl)n3)c2C#N)C1 (configuration not stated) | inactive: 78% |
| COc1ccc(-n2ccnc2SCC(=O)Nc2ccc3c(c2)OCO3)cc1 | inactive: 119% |
| Cc1ccc(CNc2ccc(-c3nc(-c4ccncc4)no3)cc2[N+](=O)[O-])cc1 | inactive: 87% |
| Cc1cccc(N2CCN(C(=O)CS(=O)(=O)c3cccc4nsnc34)CC2)c1C | inactive: 153% |
| CCOC(=O)c1c(C)[nH]c(C)c1S(=O)(=O)N1CCC(C(=O)Nc2cc(C)ccn2)CC1 | inactive: 60% |
| Cc1ccc(Cl)cc1N1CCN(C(=O)C2CCC(CNS(=O)(=O)c3cccs3)CC2)CC1 (configuration not stated) | inactive: 60% |
| Cc1ccc2nc(COc3ccccc3NC(=O)COc3ccc(F)cc3)cc(=O)n2c1 | inactive: 124% |
| CCc1ccccc1NS(=O)(=O)c1ccc2[nH]cc(C(=O)N(CC(C)C)CC(C)C)c(=O)c2c1 | inactive: 71% |
| Cc1ccc(-c2nc(S(=O)(=O)c3ccccc3)c(N3CCN(c4ccccc4)CC3)o2)cc1 | inactive: 117% |
| CCc1ccccc1N(CC)C(=O)c1c(C)oc2ncn(C)c(=O)c12 | inactive: 71% |
| COc1ccccc1N1CCN(C(=O)c2cc(CC(C)C)on2)CC1 | inactive: 82% |
| O=C(Nc1ccc(S(=O)(=O)N2CCOCC2)cc1)c1cnccn1 | inactive: 104% |
| CCCn1c(=O)/c(=C2/C=Cc3ccccc3N2C)s/c1=C1\SC(=S)NC1=O | inactive: 105% |
| COc1ccc(-c2nc(SCC(=O)Nc3ccc4c(c3)OCCO4)c(-c3ccc(F)cc3)[nH]2)cc1 | inactive: 90% |

| Structure (SMILES) | survival |
| --- | --- |
| Cc1cccc(C(C)C)c1NC(=O)Cn1c(=O)oc2cc(S(=O)(=O)N3CCCC3)ccc21 | inactive: 84% |
| O=C(Nc1ccccc1C(=O)OCc1cc(=O)n2c3c(sc2n1)CCCC3)c1ccc(F)cc1 | inactive: 124% |
| C=CCc1c(C)[nH]c2ccccc2c1=O | inactive: 102% |
| COc1ccc(NC(=O)C2CCN(S(=O)(=O)c3ccc4c(c3)CCCC(=O)N4)CC2)cc1OC | inactive: 76% |
| CCc1ccc2nc(N(CCN(CC)CC)C(=O)c3cccs3)sc2c1 | inactive: 75% |
| CCCc1noc2c1C1=NNC(=O)C1C(C)(C)C2 (configuration not stated) | inactive: 104% |
| COc1cccc(C(=O)Nc2nc3nc(-c4ccccc4)cc(=O)n3[nH]2)c1 | inactive: 89% |
| C=CCNc1nc(N)c(C(=C(C#N)C#N)c2ccccc2)s1 | inactive: 113% |
| CCOC(=O)c1c(-c2ccc(C)cc2)csc1NC(=O)c1cc(=O)c2cc(C)ccc2o1 | inactive: 80% |
| O=C(Cn1c(=O)nc(-c2ccccc2)c2ccccc21)NCCc1ccccc1 | inactive: 71% |
| O=C1c2oc3ccccc3c(=O)c2C(c2cccc(O)c2)N1c1nncs1 (configuration not stated) | inactive: 89% |
| COc1cccc(CNC(=O)C2=C(C)C(=O)OC23CCN(C(C)=O)CC3)c1OC | inactive: 74% |
| CC(C)=C1C2C=CC1C1C(=O)N(CCO)C(=O)C21 (configuration not stated) | inactive: 101% |
| COc1ccc(-c2oc3ncn4nc(COc5cccc(C)c5C)nc4c3c2-c2ccc(OC)cc2)cc1 | inactive: 77% |
| COc1cc(Nc2nc(SCc3ccc(Cl)cc3)nc3ccccc23)cc(OC)c1 | inactive: 81% |
| CC(=O)c1ccc(NC(=O)CN2C(=O)CN(C)C(=O)c3ccccc32)cc1 | inactive: 87% |
| Cc1cccc(CNC(=O)c2ccc(N3Cc4ccccc4Oc4ncccc43)s2)c1 | inactive: 69% |
| COc1cccc(C(=O)N2CCC(C(=O)Nc3cccc(Cl)c3)CC2)c1 | inactive: 78% |
| CN(C)c1cccc(C(=O)N2CCC(c3c[nH]c4ccccc34)(c3c[nH]c4ccccc34)CC2)c1 | inactive: 67% |
| O=C(O)C1=NN(c2ccccc2)C(=O)C1 | inactive: 113% |
| CCC(C(=O)NCc1cc(OC)ccc1OC)n1nc(C)c2sc3ccccc3c2c1=O (configuration not stated) | inactive: 87% |
